Substitutions are numbered along the chain they refer to.
B1: 087B03-L1-C1-L3-IL22 (other)
light: QAALTQPASVSGSPGQSITISCTGASGDVGAYNFVSWYQQHPGKAPKLIIYDVNKRPSGVSNRFSGSKSGNTASLTISGLQAEDEADYYCSSYTSTFSVVFGGGTKLTVLGQPKAAPSVTLFPPSSEELQANKATLVCLISDFYPGAVTVAWKADSSPVKAGVETTTPSKQSNNKYAASSYLSLTPEQWKSHRSYSCQVTHEGSTVEKTVAPTECS
heavy: EVQLVESGGGVVRPGGSLRLSCAASGFTFDDYGMNWVRQAPGKGLEWVSGVNWNGGTRDYAASVKGRFTISRDNAKNSLYLQMNSLRAEDTALYHCARGWYSGAAWNMGYWGRGTLVTVSSTSTSGRSANPRGASTKGPSVFPLAPSSKSTSGGTAALGCLVKDYFPEPVTVSWNSGALTSGVHTFPAVLQSSGLYSLSSVVTVPSSSLGTQTYICNVNHKPSNTKVDKRVGGGGSGGGGS[no letters for human IgG1 Fc with changes]GSTSTSGRSANPRGGGSAPISSHCRLDKSNFQQPYITNRTFMLAKEASLADNNTDVRLIGEKLFHGVSMSERCYLMKQVLNFTLEEVLFPQSDRFQPYMQEVVPFLARLSNRLSTCHIEGDDLHIQRNVQKLKDTVKKLGESGEIKAIGELDLLFMSLRNACI
B2: 087B03-L1-C3-L3-IL22 (other)
light: B1 light with C215S
heavy: EVQLVESGGGVVRPGGSLRLSCAASGFTFDDYGMNWVRQAPGKGLEWVSGVNWNGGTRDYAASVKGRFTISRDNAKNSLYLQMNSLRAEDTALYHCARGWYSGAAWNMGYWGRGTLVTVSSTSTSGRSANPRGASTKGPSVFPLAPSSKSTSGGTAALGCLVKDYFPEPVTVSWNSGALTSGVHTFPAVLQSSGLYSLSSVVTVPSSSLGTQTYICNVNHKPSNTKVDKRVGGGGSGGGGS[no letters for human IgG1 Fc with changes]GSTSTSGRSANPRGGGSAPISSHCRLDKSNFQQPYITNRTFMLAKEASLADNNTDVRLIGEKLFHGVSMSERCYLMKQVLNFTLEEVLFPQSDRFQPYMQEVVPFLARLSNRLSTCHIEGDDLHIQRNVQKLKDTVKKLGESGEIKAIGELDLLFMSLRNACI
B3: 087B03-L1-C2-L3-IL22 (other)
light: B1 light
heavy: EVQLVESGGGVVRPGGSLRLSCAASGFTFDDYGMNWVRQAPGKGLEWVSGVNWNGGTRDYAASVKGRFTISRDNAKNSLYLQMNSLRAEDTALYHCARGWYSGAAWNMGYWGRGTLVTVSSTSTSGRSANPRGASTKGPSVFPLAPSSKSTSGGTAALGCLVKDYFPEPVTVSWNSGALTSGVHTFPAVLQSSGLYSLSSVVTVPSSSLGTQTYICNVNHKPSNTKVDKRVEPKSCGGGGSGGGGS[no letters for human IgG1 Fc with changes]GSTSTSGRSANPRGGGSAPISSHCRLDKSNFQQPYITNRTFMLAKEASLADNNTDVRLIGEKLFHGVSMSERCYLMKQVLNFTLEEVLFPQSDRFQPYMQEVVPFLARLSNRLSTCHIEGDDLHIQRNVQKLKDTVKKLGESGEIKAIGELDLLFMSLRNACI
B4: 087B03-L1-C4-L3-IL22 (other)
light: B1 light
heavy: EVQLVESGGGVVRPGGSLRLSCAASGFTFDDYGMNWVRQAPGKGLEWVSGVNWNGGTRDYAASVKGRFTISRDNAKNSLYLQMNSLRAEDTALYHCARGWYSGAAWNMGYWGRGTLVTVSSTSTSGRSANPRGASTKGPSVFPLAPCSKSTSGGTAALGCLVKDYFPEPVTVSWNSGALTSGVHTFPAVLQSSGLYSLSSVVTVPSSSLGTQTYICNVNHKPSNTKVDKRVGGGGSGGGGS[no letters for human IgG1 Fc with changes]GSTSTSGRSANPRGGGSAPISSHCRLDKSNFQQPYITNRTFMLAKEASLADNNTDVRLIGEKLFHGVSMSERCYLMKQVLNFTLEEVLFPQSDRFQPYMQEVVPFLARLSNRLSTCHIEGDDLHIQRNVQKLKDTVKKLGESGEIKAIGELDLLFMSLRNACI
B5: F4 monovalent IL-12 fusion Ustk (other)
light chain 1 (UstkVL): [no letters for about 200 residues]
heavy chain 1 (UstKVH, cleavable linker, constant region, GS linker, single-chain IL-12; knob): EVQLVQSGAEVKKPGESLKISCKGSGYSFTTYWLGWVRQMPGKGLDWIGIMSPVDSDIRYSPSFQGQVTMSVDKSITTAYLQWNSLKASDTAMYYCARRRPGQGYFDFWGQGTLVTVSSTSTSGRSANPRGASTKGPSVFPLAPSSKSTSGGTAALGCLVKDYFPEPVTVSWNSGALTSGVHTFPAVLQSSGLYSLSSVVTVPSSSLGTQTYICNVNHKPSNTKVDKRVGGGGSGGGGSEPKSCDKTHTCPPCPAPELRRGPSVFLFPPKPKDTLMISRTPEVTCVVVDVSHEDPEVKFNWYVDGVEVHNAKTKPREEQYNSTYRVVSVLTVLHQDWLNGKEYKCKVSNKALPAPIEKTISKAKGQPREPQVCTLPPSREEMTKNQVSLWCLVKGFYPSDIAVEWESNGQPENNYKTTPPVLDSDGSFFLYSKLTVDKSRWQQGNVFSCSVMHEALHNRYTQKSLSLSPGGSGGSGGSGGSGGSGGSIWELKKDVYVVELDWYPDAPGEMVVLTCDTPEEDGITWTLDQSSEVLGSGKTLTIQVKEFGDAGQYTCHKGGEVLSHSLLLLHKKEDGIWSTDILKDQKEPKNKTFLRCEAKNYSGRFTCWWLTTISTDLTFSVKSSRGSSDPQGVTCGAATLSAERVRGDNKEYEYSVECQEDSACPAAEESLPIEVMVDAVHKLKYENYTSSFFIRDIIKPDPPKNLQLKPLKNSRQVEVSWEYPDTWSTPHSYFSLTFCVQVQGKSKREKKDRVFTDKTSATVICRKNASISVRAQDRYYSSSWSEWASVPCSGGGGSGGGGSGGGGSGGGGSRNLPVATPDPGMFPCLHHSQNLLRAVSNMLQKARQTLEFYPCTSEEIDHEDITKDKTSTVEACLPLELTKNESCLNSRETSFITNGSCLASRKTSFMMALCLSSIYEDLKMYQVEFKTMNAKLLMDPKRQIFLDQNMLAVIDELMQALNFNSETVPQKSSLEEPDFYKTKIKLCILLHAFRIRAVTIDRVMSYLNAS
light chain 2 (anti-KLH VH with human kappa constant region, CrossMab): QVQLQQSGPQLVRPGASVKISCKASGYSFTSYWMHWVNQRPGQGLEWIGMIDPSYSETRLNQKFKDKATLTVDKSSSTAYMQLSSPTSEDSAVYYCALYGNYFDYWGQGTTLTVSSASVAAPSVFIFPPSDEQLKSGTASVVCLLNNFYPREAKVQWKVDNALQSGNSQESVTEQDSKDSTYSLSSTLTLSKADYEKHKVYACEVTHQGLSSPVTKSFNRGEC
heavy chain 2 (anti-KLH VL and modified IgG1 Fc; hole): DIQMTQSSSSFSVSLGDRVTITCKASEDIYNRLAWYQQKPGNAPRLLISGATSLETGVPSRFSGSGSGKDYTLSITSLQTEDVATYYCQQYWSTPYTFGGGTKLEVKSSASTKGPSVFPLAPSSKSTSGGTAALGCLVKDYFPEPVTVSWNSGALTSGVHTFPAVLQSSGLYSLSSVVTVPSSSLGTQTYICNVNHKPSNTKVDKRVGGGGSGGGGSEPKSCDKTHTCPPCPAPELRRGPSVFLFPPKPKDTLMISRTPEVTCVVVDVSHEDPEVKFNWYVDGVEVHNAKTKPREEQYNSTYRVVSVLTVLHQDWLNGKEYKCKVSNKALPAPIEKTISKAKGQPREPQVYTLPPSRCEMTKNQVSLSCAVKGFYPSDIAVEWESNGQPENNYKTTPPVLDSDGSFFLVSKLTVDKSRWQQGNVFSCSVMHEALHNHYTQKSLSLSP

How the values were obtained:
Test in all cases: cell-based or functional assay
[1] = molecular target: T1, IL-22 receptors on COLO205 cells (UniProt Q8N6P7 16-574; Q08334 20-325, limits assumed)
T1 sequence (looked up) 1: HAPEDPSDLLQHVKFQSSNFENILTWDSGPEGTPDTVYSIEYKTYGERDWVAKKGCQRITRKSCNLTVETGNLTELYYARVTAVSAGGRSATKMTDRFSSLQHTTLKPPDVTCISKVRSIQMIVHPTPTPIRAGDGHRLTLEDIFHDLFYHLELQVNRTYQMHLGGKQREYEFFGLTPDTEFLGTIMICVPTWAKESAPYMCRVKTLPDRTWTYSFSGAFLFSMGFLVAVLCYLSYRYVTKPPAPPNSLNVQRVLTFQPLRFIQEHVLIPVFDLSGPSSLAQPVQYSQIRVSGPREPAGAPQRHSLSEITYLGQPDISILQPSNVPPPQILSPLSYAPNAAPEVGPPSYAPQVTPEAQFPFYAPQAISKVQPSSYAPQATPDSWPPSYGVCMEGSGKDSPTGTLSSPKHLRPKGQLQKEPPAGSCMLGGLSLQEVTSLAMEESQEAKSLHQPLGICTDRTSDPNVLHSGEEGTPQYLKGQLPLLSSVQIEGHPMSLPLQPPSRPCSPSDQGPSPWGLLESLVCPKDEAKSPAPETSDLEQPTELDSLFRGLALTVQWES
T1 sequence (looked up) 2: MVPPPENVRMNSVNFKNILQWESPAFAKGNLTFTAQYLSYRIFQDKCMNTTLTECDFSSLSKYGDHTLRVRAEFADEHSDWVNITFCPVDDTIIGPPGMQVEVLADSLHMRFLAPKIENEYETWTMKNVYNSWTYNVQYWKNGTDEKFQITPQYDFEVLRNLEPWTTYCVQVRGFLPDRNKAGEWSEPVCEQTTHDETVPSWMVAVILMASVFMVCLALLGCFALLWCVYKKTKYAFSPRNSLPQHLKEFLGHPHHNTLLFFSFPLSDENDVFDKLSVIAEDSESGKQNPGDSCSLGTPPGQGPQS

[2] = molecular target: T1, IL-22 receptors on COLO205 cells; remark: listed apart in the source
[3] = molecular target: T2, IL-12, composed of p40 and p35 (human (the free comparator is printed …, UniProt P29460 23-328; P29459 23-219)
T2 sequence 1: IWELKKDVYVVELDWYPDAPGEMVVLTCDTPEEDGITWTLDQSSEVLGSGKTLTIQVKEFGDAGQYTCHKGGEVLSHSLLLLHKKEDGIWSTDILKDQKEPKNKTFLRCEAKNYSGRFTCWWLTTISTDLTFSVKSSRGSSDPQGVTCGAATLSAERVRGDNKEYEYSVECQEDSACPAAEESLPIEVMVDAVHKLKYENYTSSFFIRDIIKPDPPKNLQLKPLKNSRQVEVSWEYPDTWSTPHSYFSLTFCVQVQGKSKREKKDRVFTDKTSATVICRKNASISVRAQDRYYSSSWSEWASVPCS
T2 sequence 2: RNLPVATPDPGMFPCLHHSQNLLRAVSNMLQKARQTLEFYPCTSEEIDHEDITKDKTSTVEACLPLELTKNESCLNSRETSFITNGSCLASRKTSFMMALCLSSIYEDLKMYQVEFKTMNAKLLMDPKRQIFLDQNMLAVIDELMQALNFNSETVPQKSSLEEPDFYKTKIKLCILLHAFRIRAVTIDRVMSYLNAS

Binder	EC50 (read off the curve) of IL-10 secretion by COLO205 cells, intact fusion without uPA [1]	EC50 (read off the curve) of IL-10 secretion by COLO205 cells, fusion pre-digested with uPA [2]	further results
B1	~1 nM		
B2	~1 nM		
B3		~0.02 nM	
B4		~0.02 nM	
B5			EC50 (read off the curve) of the IL-12 luciferase reporter activity of the fusion pre-treated with MTSP1 [3]: ~0.3 nM
